The record followed here is PMC7819943, “Rice protein-binding microarrays: a tool to detect cis-acting elements near promoter regions in rice”.

Some of the results follow.

The target in the test is T1, OsWOX13 (Oryza sativa, UniProt Q5QMM3 1-267).
T1 sequence: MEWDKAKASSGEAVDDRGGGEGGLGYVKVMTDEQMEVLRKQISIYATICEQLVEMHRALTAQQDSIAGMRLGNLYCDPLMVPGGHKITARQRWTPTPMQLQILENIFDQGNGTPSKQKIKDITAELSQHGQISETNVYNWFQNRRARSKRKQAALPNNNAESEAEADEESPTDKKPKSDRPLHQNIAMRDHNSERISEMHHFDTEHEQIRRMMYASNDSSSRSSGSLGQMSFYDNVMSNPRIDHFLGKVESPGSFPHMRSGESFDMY
In words: protein-binding microarray (RPBM); PBS, 2% BSA, 51.3 ng/ul salmon testes DNA, 50 uM zinc acetate, 200 nM TF, 25 C, 1 h; high values mean tight binding. Conditions: protein: recombinant; tags: N-terminal polyhistidine and DsRed monomer fusion (pET32a); label: CyDye5-dUTP incorporated in the synthesized complementary strand; 3' TTTTT single-stranded linker to array surface; dsDNA, one strand shown. In short, it runs like this: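 Transcription factors, each fused N-terminally to a polyhistidine tag and DsRed, were expressed in E. coli BL21-CodonPlus and purified on Ni–NTA. A custom Agilent array was made double-stranded by primer extension with Cy5-dUTP and blocked with 2% BSA. It was incubated with 200 nM protein in PBS, 2% BSA, salmon testes DNA and 50 µM zinc acetate at 25 °C for 1 h, then washed. The binding signal is per-feature fluorescence intensity (arbitrary units) read on an Axon 4000B scanner.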
“GTTTATAATAATTAAAACTTAATTAATCACATGTTATTACCGGAGTCACCTAGTGCAG”: the binding signal was 22900 fluorescence intensity (a.u.). The same measure for “CAGTAACAATCACTCATTCTCAGTATCTGCTACTCCTCTACGGAGTCACCTAGTGCAG”: 3660 fluorescence intensity (a.u.).

On to “GTTTGTTAATTATTCACTAATCTCTAGTACTATAGTTGTACGGAGTCACCTAGTGCAG”, for which the binding signal was 17100 fluorescence intensity (a.u.). In the case of “GTACACTATAAATTTATATGTTTGCATACCATAGGGCAAACGGAGTCACCTAGTGCAG” it was 3200 fluorescence intensity (a.u.); in that of “TGCTCTGAATGGATGCAATCAAGCAATAGCACCATACGTCCGGAGTCACCTAGTGCAG”, 5360 fluorescence intensity (a.u.); in that of “TGTGATTAGACCAGAAAGGGATTACAAAATTGGCCACTCCCGGAGTCACCTAGTGCAG”, 42200 fluorescence intensity (a.u.). With “GAACTTGGCCGATTTGTCAATTAATTTACAAATACAAACTCGGAGTCACCTAGTGCAG”, the binding signal was 22300 fluorescence intensity (a.u.). The same measure for “TGTTTTAATTTACGAGGGCCGTCGTGTTCAGGACTCGCAACGGAGTCACCTAGTGCAG”: 6320 fluorescence intensity (a.u.); for “CCCCTCCAAAATTTATGTAATTACCTCCCATCTCTCCATACGGAGTCACCTAGTGCAG”: 9350 fluorescence intensity (a.u.); for “GTGGGATTGGGATTGGAAAATAAATGAAGGGTTAGGATTACGGAGTCACCTAGTGCAG”: 29700 fluorescence intensity (a.u.). The same measure for “TTCTTGATGGAAATTGAAATTGTGTGTGTGGGATGCAGGACGGAGTCACCTAGTGCAG”: 46400 fluorescence intensity (a.u.); for “ACGGAGGAGTTAATTTTGATCTAATGCCTAATATATGTGGCGGAGTCACCTAGTGCAG”: 3220 fluorescence intensity (a.u.). “TATACACATAACAAAATTAAATTAGACTACCCATTTCAATCGGAGTCACCTAGTGCAG”: the binding signal was 3450 fluorescence intensity (a.u.). In the case of “TTATTAGATTGACTATAGATAAATTAGATAAATTGGAGTTCGGAGTCACCTAGTGCAG” it was 53600 fluorescence intensity (a.u.); in that of “TTGTTTGACAGGTGATGTTGATTCAGAGTAGAGAACTGCACGGAGTCACCTAGTGCAG”, 16500 fluorescence intensity (a.u.); in that of “TATATATATATATATATATATATAATGTTTCATCACCTGTCGGAGTCACCTAGTGCAG”, 30300 fluorescence intensity (a.u.).

For “CCAAATCAATCAGCCACCTCCAGTGCGTCGTTCTCTCGACCGGAGTCACCTAGTGCAG”, the binding signal is 14500 fluorescence intensity (a.u.). In the case of “CAAATTACGCCCAAACAAATTGGCGAGAGCCGAGAAGAACCGGAGTCACCTAGTGCAG” it was 7970 fluorescence intensity (a.u.); in that of “AATTTAATTTCGAATTAATAATTGTAAAATTATGTTTACCCGGAGTCACCTAGTGCAG”, 41400 fluorescence intensity (a.u.); in that of “GCCCAACGAGACTGAGAGTTAATTGGGCTGGGCCATATGCCGGAGTCACCTAGTGCAG”, 10400 fluorescence intensity (a.u.). Regarding “CTCTAAATTAGTGTCTAAAGACATGGACTAAAGTTAAGTCCGGAGTCACCTAGTGCAG”, the binding signal was 31500 fluorescence intensity (a.u.). The same measure for “CCTGATGTACTAATGGGTTCCACCGTATATAAGATCCAATCGGAGTCACCTAGTGCAG”: 5110 fluorescence intensity (a.u.); for “AGTCAATTTGCACTCGTTATACCCTGGTTTTACGGTTGAACGGAGTCACCTAGTGCAG”: 6480 fluorescence intensity (a.u.). The same measure for “GCTATTTGACGATATGATGATAAGACATTGTTATACATCTCGGAGTCACCTAGTGCAG”: 3380 fluorescence intensity (a.u.); for “TTTGTATCTATCTACCAACATCAATCAATACATGCTAACCCGGAGTCACCTAGTGCAG”: 4870 fluorescence intensity (a.u.).

In the case of “TCTAAACTGATAATTGCAAATTGTAATTGATAGCATTGAGCGGAGTCACCTAGTGCAG”, the binding signal is 63700 fluorescence intensity (a.u.). The same measure for “CCTGAAACCACTTAATTTATCACAAACACCCCTCGTAGACCGGAGTCACCTAGTGCAG”: 5770 fluorescence intensity (a.u.). The same measure for “CACACCATTCCCAATCAAAGACGAGATAGCTCAAGAAGCACGGAGTCACCTAGTGCAG”: 6540 fluorescence intensity (a.u.); for “TATAATTAATTGAGTATTTCTAAAATTGGATAAGACATATCGGAGTCACCTAGTGCAG”: 28900 fluorescence intensity (a.u.).

On to “GGTGATATCATTAATTGCCAAGAATTCCATACATTCTTCCCGGAGTCACCTAGTGCAG”, for which the binding signal is 27000 fluorescence intensity (a.u.). On to “CATAATGGTAATATTAACGTGGTAGATATCTTACACTAAACGGAGTCACCTAGTGCAG”, for which the binding signal is 6620 fluorescence intensity (a.u.).

On to “AACCTTGAATATTTAATTTAGACTTCACACGAATTGCAGACGGAGTCACCTAGTGCAG”, for which the binding signal was 3310 fluorescence intensity (a.u.). The same measure for “CCTCGAAAGTGATTGGAATCTAATCCGTAACCCTAAACCACGGAGTCACCTAGTGCAG”: 33800 fluorescence intensity (a.u.); for “ACGCCATACTTAACGCTGATTGCACTTATTAATTCTGTAGCGGAGTCACCTAGTGCAG”: 11700 fluorescence intensity (a.u.). In the case of “TTTGATAAACTAGTACATCCTTTTGTTTCACCATTTCGGCCGGAGTCACCTAGTGCAG” it was 4270 fluorescence intensity (a.u.).

On to “TTGGGATTGAGAAATGAATGAAGGGTTAGGATTAAATGGACGGAGTCACCTAGTGCAG”, for which the binding signal was 26700 fluorescence intensity (a.u.). In the case of “TTTACAAGTGGATTGGATAATTGTTGCTGCAGAACATGACCGGAGTCACCTAGTGCAG” it was 8040 fluorescence intensity (a.u.); in that of “TTCTAATATATATTGACGTAATCATTTTACGGGTTCGTGACGGAGTCACCTAGTGCAG”, 10500 fluorescence intensity (a.u.); in that of “TATGCTAGGAGCACTTAATTAATTGCTGTTCCTCTCTAGGCGGAGTCACCTAGTGCAG”, 4620 fluorescence intensity (a.u.). The same measure for “ATTTAATTTAATTCAGGAATTTTGTTGAATAATGGATGCTCGGAGTCACCTAGTGCAG”: 37700 fluorescence intensity (a.u.); for “CGATCTGATGGACAGTCTCGATTGGTTCTGACGTAGATAACGGAGTCACCTAGTGCAG”: 23600 fluorescence intensity (a.u.).

Regarding “CCATCCCCATCCATCCATCAATCTGCTCGCGCGGATCCGGCGGAGTCACCTAGTGCAG”, the binding signal is 3460 fluorescence intensity (a.u.).
